# Test results taken from PubChem BioAssay AID360 (National Center for Advancing Translational Sciences (NCATS), 2006).
# Out of some 48,000 compounds screened, about 550 (1.1%) were called active. Not shown: some 4% with an inconclusive outcome. Rule as the data show it: active = potency below about 15 µM; inconclusive = mostly about 16 µM to 33 µM; inactive = weaker than that. This is one part of the list.
# Biological target: Lysosomal acid glucosylceramidase (Homo sapiens) (UniProt P04062)
# Test: Glucocerebrosidase;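 also: the screen sought inhibitors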
# Conditions: purified enzyme, resorufin glucoside fluorescence (screen aimed at inhibitors), 20 min
# Summary of the method: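 Wild-type enzyme at 0.2 nM final in 50mM citric acid/KH2PO4, 10mM sodium taurocholate, 0.01% tween-20, pH 5.9, with resorufin beta-D-glucopyranoside at 30 uM final. Compounds titrated, 20 min at RT, red fluorescence read; AC50 from titration.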
# Potency is read from the fitted curve at half-maximal effect.
# UniProt P04062, sequence (P04062 whole entry, looked up): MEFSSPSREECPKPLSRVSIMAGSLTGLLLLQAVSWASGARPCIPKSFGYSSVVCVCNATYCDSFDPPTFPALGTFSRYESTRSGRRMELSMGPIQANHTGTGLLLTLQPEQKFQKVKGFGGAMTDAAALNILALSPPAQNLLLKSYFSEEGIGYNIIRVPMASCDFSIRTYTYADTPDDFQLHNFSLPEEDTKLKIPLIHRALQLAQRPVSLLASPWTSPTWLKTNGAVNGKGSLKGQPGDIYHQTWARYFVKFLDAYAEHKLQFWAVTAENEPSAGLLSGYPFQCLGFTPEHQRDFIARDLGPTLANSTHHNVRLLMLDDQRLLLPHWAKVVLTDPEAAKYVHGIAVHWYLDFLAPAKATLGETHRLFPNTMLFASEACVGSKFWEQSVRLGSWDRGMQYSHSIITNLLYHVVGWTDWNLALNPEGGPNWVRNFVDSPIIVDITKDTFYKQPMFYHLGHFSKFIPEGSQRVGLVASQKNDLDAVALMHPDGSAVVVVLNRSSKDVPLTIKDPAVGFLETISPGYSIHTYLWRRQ
row,SMILES,Potency
1,O=C(Nc1cc2nn(-c3ccccc3)nc2cc1Cl)c1ccco1,inactive: > 76.9 µM
2,O=C(COc1cccc(C(F)(F)F)c1)NCCCN1CCCC1=O,inactive: > 76.9 µM
3,O=C(COc1ncnc2ccccc12)c1ccc2c(c1)OCCO2,inactive: > 76.9 µM
4,Cc1ccc(S(=O)(=O)N(C)Cc2ccc(-c3nnco3)cc2)cc1,inactive: > 76.9 µM
5,COc1cc2c(cc1OC)C(C(=O)O)C(c1cc(Br)c(O)c(OC)c1)N(C)C2=O (configuration not stated),inactive: > 76.9 µM
6,COc1ccc(C(=O)NC(C)c2nc3ccccc3n2C)cc1OC (configuration not stated),inactive: > 76.9 µM
7,Cc1cccc(NC(=O)Cn2cccc2)c1,inactive: > 76.9 µM
8,Cc1cc(Cl)c(S(=O)(=O)N2CCN(c3ccc(F)cc3)CC2)cc1OCC(N)=O,inactive: > 76.9 µM
9,O=C(COc1ccc2c(c1)OCO2)Nc1ccc2c(c1)oc1ccccc12,inactive: > 76.9 µM
10,COc1ccccc1C1C(C#N)=C(N)Oc2cc(C)n(CCCn3ccnc3)c(=O)c21 (configuration not stated),inactive: > 76.9 µM
11,Cc1cc(C)n2nc(SC(C)C(=O)NCc3ccco3)nc2n1 (configuration not stated),inactive: > 76.9 µM
12,Cc1cc(OCc2nnc(SCC(=O)OC3CCCCC3)o2)ccc1Cl,inactive: > 76.9 µM
13,CCOC(=O)C1=C(N)Oc2cc(O)ccc2C1c1cccnc1 (configuration not stated),inactive: > 76.9 µM
14,Cn1c(=O)n(CCc2ccccc2)c(=O)c2c1nc1n2CCCN1c1ccccc1,inactive: > 76.9 µM
15,O=C(OCc1cccs1)c1ccccc1NS(=O)(=O)c1ccc2c(c1)OCCO2,inactive: > 76.9 µM
16,Cc1cc(C)cc(N(C(=O)c2ccc3c(c2)OCO3)C2C=CS(=O)(=O)C2)c1 (configuration not stated),inactive
17,Cc1ccc(S(=O)(=O)NC(=O)N2CCC(C)CC2)cc1,inactive: > 76.9 µM
18,O=C(CCSc1ccc(Cl)cc1)N1CCN(c2ncccn2)CC1,inactive: > 76.9 µM
19,O=C(CSc1nnc2c(Cl)cc(Cl)cn12)N1CCN(S(=O)(=O)c2ccccc2)CC1,inactive: > 76.9 µM
20,CCOC(=O)c1ccc(N=C2NC(=O)CS2)cc1,inactive: > 76.9 µM
21,O=C(OCC(=O)c1cccs1)C1=COCCO1,inactive: > 76.9 µM
22,S=C(c1ccc2c(c1)OCO2)N1CCCC1,inactive: > 76.9 µM
23,O=c1c2ccccc2oc2nc(C3CCCCC3)n(Cc3ccco3)c(=O)c12,inactive: > 76.9 µM

row,SMILES,Potency
1,Cc1nc2ncnn2c(C)c1CCC(=O)NCc1ccco1,inactive: > 76.9 µM
2,CC1(C)CC(=O)C2=C(C1)N=C1SCCC(=O)N1C2c1ccccc1 (configuration not stated),inactive: > 76.9 µM
3,COc1ccc(S(=O)(=O)N2C3CCC2CC(NC(=O)C2CC2)C3)cc1 (configuration not stated),inactive: > 76.9 µM
4,Cc1cc(C(=O)CSc2nc3ccc(Cl)cc3[nH]2)c(C)n1C,inactive: > 76.9 µM
5,Nc1cc(N)nc(SCC(=O)Nc2ccc3c(c2)OCCCO3)n1,inactive: > 76.9 µM
6,O=C(COC(=O)c1n[nH]c2ccccc12)NC(=O)NC12CC3CC(CC(C3)C1)C2,inactive: > 76.9 µM
7,COc1ccc(CCn2c(N)cc(=O)[nH]c2=S)cc1OC,inactive
8,CCOC(=O)N1CCN(C(=O)c2ccc3c(=O)n(Cc4ccccc4)c(=S)[nH]c3c2)CC1,inactive: > 76.9 µM
9,CCN1CCN(C(=O)CN(c2ccccc2C)S(C)(=O)=O)CC1,inactive: > 76.9 µM
10,CCOC(=O)CSc1nnc2c(n1)C1(C)CCC2C1(C)C (configuration not stated),inactive: > 76.9 µM
11,O=C(O)c1cc2ccccc2n1-c1ccccc1,inactive: > 76.9 µM
12,Cc1ccc(NC(=O)N2CCC(C(=O)NCc3ccc(F)cc3)CC2)cc1,inactive: > 76.9 µM
13,COc1ccc2c(=O)c3c(=O)n(Cc4ccco4)c(-c4cc(OC)c(OC)c(OC)c4)nc3oc2c1,inactive: > 76.9 µM
14,COc1cc(OC)cc(C(=O)NCc2n[nH]c(=S)n2-c2ccccc2OC)c1,inactive: > 76.9 µM
15,COc1ccc(CC(=O)OCc2cc3ccccc3[nH]c2=O)cc1,inactive: > 76.9 µM
16,O=C(CN1CCC(O)(c2ccc3c(c2)OCO3)CC1)OC1CCCCC1,inactive: > 76.9 µM
17,CC(=O)Nc1cc(C(=O)N2CCOCC2)ccc1S(=O)(=O)c1ccc(C)cc1,inactive: > 76.9 µM
18,Fc1ccc2c(c1)[C@H]1OCC[C@H]1[C@@H](c1ccco1)N2,inactive: > 76.9 µM
19,CN(C)S(=O)(=O)N1CCN(c2ccc(Cl)cc2)CC1,inactive: > 76.9 µM
20,COc1ccc(C)cc1NC(=O)C1C2C=CC(C2)C1C(=O)O (configuration not stated),inactive: > 76.9 µM
21,CCCCCCNS(=O)(=O)c1ccc(OC)c(OC)c1,inactive: > 76.9 µM
22,COC(=O)c1cc2c(s1)CS(=O)C2 (configuration not stated),inactive: > 76.9 µM
23,N#CCCN1CCN(CCC#N)CC1,inactive: > 76.9 µM

row,SMILES,Potency
1,COc1ccc(C(=O)N2CCN(c3nnnn3-c3ccccc3)CC2)cc1OC,inactive: > 76.9 µM
2,O=C(CCCCn1c(=O)c2ccccc2n(CC(=O)NC2CCCC2)c1=O)NC1CCCC1,inactive: > 76.9 µM
3,Cc1c(Cl)cccc1N(CC(=O)O)S(C)(=O)=O,inactive: > 76.9 µM
4,CC(C)N=C(NC#N)SCc1ccccc1F,inactive: > 76.9 µM
5,O=C(NCc1ccco1)c1noc2c1CCCC2,inactive: > 76.9 µM
6,CCOc1ccc(N(CC(=O)NC(C)(C)C)C(=O)c2ccco2)cc1,inactive: > 76.9 µM
7,CCCCCOC(=O)CSc1nc2c(c(=O)[nH]c(=O)n2C)n1CCc1ccccc1,inactive: > 76.9 µM
8,O=C(C1CC1)N1CCN(c2nc3ccccc3s2)CC1,inactive: > 76.9 µM
9,CCc1nc(N2CCCCC2)c2oc3ccccc3c2n1,inactive: > 76.9 µM
10,COc1ccccc1Cc1noc(-c2cc(Cl)ccc2OC)n1,inactive: > 76.9 µM
11,CCSc1nnc(Nc2ccccc2)s1,inactive: > 76.9 µM
12,CC(=O)c1c(C)n(CC(=O)NCc2ccc3c(c2)OCO3)c2ccccc12,inactive: > 76.9 µM
13,CC(C)NC(=O)c1ccc2c(=O)n(C3CCCC3)c(=S)[nH]c2c1,inactive: > 76.9 µM
14,O=C(CN1CCOCC1)OCCCC1CCCCC1,inactive: > 76.9 µM
15,CCC(C)(C)NC(=O)CC(c1ccc(OC)cc1)n1cccc1 (configuration not stated),inactive: > 76.9 µM
16,COc1ccc(NC(=O)c2ccc3c(=O)n(Cc4ccco4)c(=S)[nH]c3c2)c(OC)c1,inactive: > 76.9 µM
17,CCOc1cc2[nH]c(=O)n(CCCN3CCCC3=O)c(=O)c2cc1OCC,inactive: > 76.9 µM
18,Cc1ccc2nc(Nc3ncc4c(n3)CCCC4=O)nc(C)c2c1,inactive: > 76.9 µM
19,CCN1C(=O)C(CC(=O)NCc2ccc(Cl)cc2)N(CC)C1=O (configuration not stated),inactive: > 76.9 µM
20,CC12CC(NC(=O)N1c1cccc(C(=O)N3CCN(c4ccccc4F)CC3)c1)c1ccccc1O2 (configuration not stated),inactive: > 76.9 µM
21,Cc1cccc(C)c1NC(=O)C1(N2CCN(C(=O)c3ccco3)CC2)CCCCC1,inactive: > 76.9 µM
22,O=C(NCCCN1CCN(c2ccccc2F)CC1)C1CCN(S(=O)(=O)c2cccs2)CC1,inactive: > 76.9 µM
23,O=C(COC(=O)c1ccc(S(=O)(=O)NCc2ccco2)cc1)NCCC1=CCCCC1,inactive: > 76.9 µM

row,SMILES,Potency
1,Cc1nnc(SCC(=O)NC(C)(C)C)n1CCc1ccccc1,inactive: > 76.9 µM
2,CCCc1cc(=O)n2[nH]c(C)cc2n1,inactive: > 76.9 µM
3,Cc1cc(C)nc(-n2nc(C)cc2Nc2ccccc2)n1,inactive: > 76.9 µM
4,OCCN1CCN(c2nc(-c3ccccc3)nc3c2oc2ccccc23)CC1,inactive
5,CCOc1ccc2nc(-c3ccccc3)[nH]c2c1,inactive
6,Cn1c(CCN2CCCCC2)nc2cc(NS(=O)(=O)c3ccc(F)cc3)ccc21,inactive: > 76.9 µM
7,Cc1ccc(C)c(S(=O)(=O)NC(CCC(N)=O)C(=O)O)c1 (configuration not stated),inactive: > 76.9 µM
8,O=C1OC2(CCCCC2)OC(=O)C1=CNc1nccs1,inactive: > 76.9 µM
9,CCN(C(=O)CN1CCN(c2ccc(OC)cc2)CC1)c1c(N)n(Cc2ccccc2)c(=O)[nH]c1=O,inactive: > 76.9 µM
10,COC(=O)Cc1[nH]nc2c1C1(CCSCC1)C(C#N)=C(N)O2,inactive: > 76.9 µM
11,COc1ccccc1C(c1nnnn1C(C)(C)C)N1CCCCCC1 (configuration not stated),inactive: > 76.9 µM
12,COc1n[nH]c2nncnc12,inactive: > 76.9 µM
13,Cc1[nH]c2ccc(F)cc2c(=O)c1SC(F)(F)C(F)F,active: 9.46 µM
14,Cc1csc(NC(=O)c2c(O)c3cccc4c3n(c2=O)CCC4)n1,inactive: > 76.9 µM
15,Cc1cc(C)c(C#N)c(SCC(=O)OC2CCCCC2)n1,inactive: > 76.9 µM
16,O=c1cc(Nc2ccc3c(c2)OCCO3)[nH]c(=O)n1C1CCCCC1,inactive: > 76.9 µM
17,O=C(CCCNS(=O)(=O)c1cccc2nsnc12)N1CCCCC1,inactive: > 76.9 µM
18,Cc1ccccc1-c1nc(CN2CCC(C(=O)NCCCN3CCOCC3)CC2)c(C)o1,inactive: > 76.9 µM
19,CC1=CC(C)C2C(=O)N(CCC[N+](C)(C)C)C(=O)C2C1 (configuration not stated),inactive: > 76.9 µM
20,COc1ccccc1-c1cc(C(F)(F)F)nc(N2CCN(c3ccccc3)CC2)n1,inactive: > 76.9 µM
21,COc1ccc(-n2c(=O)cc(N3CCCCCC3)[nH]c2=O)cc1,inactive: > 76.9 µM
22,Cc1ccc(OCCN2CCN(C(=O)CCC(=O)Nc3nnc(C)s3)CC2)cc1,inactive: > 76.9 µM
23,CC(C)OC(=O)CSc1nnnn1-c1ccc2c(c1)OCCO2,inactive: > 76.9 µM
